Paper PMC6919601, “Identification of Plasmodium dipeptidyl aminopeptidase allosteric inhibitors by high throughput screening” (PLoS ONE, 2019)
The campaign covered roughly 110,000 compounds. About 230 (0.21%) showed an effect of 50% or more. Some of the results follow.

Biological target: DPAP1 (Plasmodium falciparum, UniProt Q8IIJ9)
Test: primary screen, percent inhibition; read by cleavage of a fluorogenic dipeptide substrate; higher = more effect of the substance
Parameters: species or system P. falciparum D10 trophozoite lysates; single well
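Note: 30 min substrate incubation versus DMSO and 10 µM JCP410 controls.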

DPAP1, sequence (Q8IIJ9 whole entry, looked up): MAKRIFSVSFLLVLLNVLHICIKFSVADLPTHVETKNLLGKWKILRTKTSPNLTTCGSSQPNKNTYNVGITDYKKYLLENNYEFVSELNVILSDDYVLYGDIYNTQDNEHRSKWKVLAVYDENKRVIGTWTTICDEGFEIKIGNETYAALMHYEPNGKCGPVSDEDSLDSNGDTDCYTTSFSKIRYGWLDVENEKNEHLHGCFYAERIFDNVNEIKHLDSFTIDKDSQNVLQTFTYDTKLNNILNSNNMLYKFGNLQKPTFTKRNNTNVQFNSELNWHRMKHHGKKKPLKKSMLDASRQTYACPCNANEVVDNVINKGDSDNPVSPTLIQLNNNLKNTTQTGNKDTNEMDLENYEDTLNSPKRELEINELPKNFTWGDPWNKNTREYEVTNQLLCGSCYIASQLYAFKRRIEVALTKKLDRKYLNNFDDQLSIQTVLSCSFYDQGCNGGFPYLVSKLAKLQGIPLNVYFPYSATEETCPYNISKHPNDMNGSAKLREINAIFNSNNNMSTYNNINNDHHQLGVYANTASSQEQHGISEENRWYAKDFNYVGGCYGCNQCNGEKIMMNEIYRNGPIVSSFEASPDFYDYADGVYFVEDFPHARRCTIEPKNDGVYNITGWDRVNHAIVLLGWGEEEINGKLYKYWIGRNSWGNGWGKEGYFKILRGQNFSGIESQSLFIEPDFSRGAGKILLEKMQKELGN

SMILES | % Inhibition @ 10 uM [%]
CCCN1C(=O)c2ccccc2NC1c1ccc(OC)cc1OC (stereo not drawn) | -9.6
O=C(O)c1cc(S(=O)(=O)N2CCCCCC2)ccc1Br | -4.4
CC1=C(C(=O)OC2CCCCCC2)C(c2ccc(C)cc2)NC(=O)N1 (stereo not drawn) | 19.2
COc1ccc(-c2cc(C(F)(F)F)n3ncc(C(=O)N4CCCCC4)c3n2)cc1 | -2.6
N#Cc1c(NC(=S)NC(=O)c2ccco2)sc2c1CCCC2 | 38.7
NS(=O)(=O)c1ccc2c(c1)OCCO2 | 1.87
O=c1sc2ccccc2n1COc1ccccc1 | -1.22
Cc1nn(C(C)C(=O)N2CCN(c3ccccn3)CC2)c(=O)c2cc3occc3n12 (stereo not drawn) | -2
Cc1c(C(=O)Nc2ccccn2)c(C(=O)Nc2ccccc2)nn1-c1ccc(Cl)cc1 | -10
CCCNC(=O)c1cc2nc(-c3ccccc3)cc(C(F)(F)F)n2n1 | 0.247
CCOCCCNC(=O)c1[nH]c2ccccc2c1Sc1ccc(C)cc1 | -1.49
O=C(O)Cc1cc(C(=O)c2ccc(Cl)cc2)sc1-c1ccccc1 | -4.02
COc1ccc(OC)c(NC(=O)c2ccc3c(c2)C(=O)N(c2ccc(Cl)cc2)C3=O)c1 | -3.09
COc1cc(C(=O)Nc2ccc(C)cc2C)cc(OC)c1OC | -2.65
CC(Oc1ccc(-c2ccccc2)cc1)C(=O)O (stereo not drawn) | 1.12
CCCN(CC1CC1)C1CCN(C(C)=O)CC1 | -3.5
CC1SC2(C(=O)Nc3ccccc32)N(c2ccc(Cl)c(Cl)c2)C1=O (stereo not drawn) | 4.32
COc1ccc(-c2nnc(-c3ccc(Cl)cc3)o2)cc1 | 5.45
COC(=O)c1ccc2oc(=O)c(-c3nc(-c4cccs4)no3)cc2c1 | -3.88
CCC(C)NS(=O)(=O)c1cc(Br)cnc1N (stereo not drawn) | 8.44
C(=C\c1ccccc1)/CN1CCN(Cc2cccs2)CC1 | -3.65

SMILES | % Inhibition @ 10 uM [%]
CCc1ccc(-c2cc(C)no2)cc1S(=O)(=O)N(C)Cc1ccccc1 | 6.76
O=C(Nc1ccc2c(c1)OCO2)C(Sc1ccccc1)c1ccccc1 (stereo not drawn) | 5.14
O=C(CSc1cn(CC(=O)N2CCOCC2)c2ccccc12)NCC1CCCO1 (stereo not drawn) | 7.24
N#CCNC(=O)[C@H](CS(=O)(=O)Cc1ccccc1)NC(=O)c1cccnc1 | -3.49
CC1Nc2nc(N(C)C)nc(O)c2N(C(=O)C2=CN(Cc3ccccc3)CCC2)C1C (stereo not drawn) | -6.83
Cc1ccc(NC(=O)CCC(=O)Nc2ccc(C)cc2C)c(C)c1 | -0.318
CCOC(=O)N1CCN(C(=O)c2ccc(C/N=c3\c(O)c(O)\c3=N/C3CCCC3)cc2)CC1 | 7.76
CCOc1ccc(S(=O)(=O)N=Nc2c(O)[nH]c3ccccc23)cc1 | 22.5
CC(CCc1ccccc1)NCc1c(C(=O)O)n(C)c2ccccc12 (stereo not drawn) | 5.09
COc1ccc(N/C=C2/C(=O)N(c3ccc(OC)cc3)C(=O)c3cc(OC)ccc32)cc1 | 5.63
Cc1[nH]c2ccccc2c1/C(Cc1ccccc1)=N/O | 2.62
Cc1nc(-c2ccccc2)nc2nccc(O)c12 | 0.343
O=S(=O)(c1ccc(-n2cccn2)cc1)N1CCN(C(c2ccccc2)c2ccccc2)CC1 | 0.776
CCn1c(-c2ccc(OC)c(F)c2)cs/c1=N/c1ccccc1 | 2.92
CC1CCCCN1C(=O)CCc1nc(-c2ccc(Cl)cc2)no1 (stereo not drawn) | 0.366
CCOC(=O)c1c(NC(=O)c2ccc(Br)cc2)sc(C(=O)N2CCOCC2)c1C | 11.6
O=C(Nc1ccccc1C#Cc1ccccc1)c1ccc(Br)cc1 | -3.35
O=C(Cn1ncc2c(=O)oc3ccccc3c21)NCCCN1CCOCC1 | -1.03
COc1ccc(C(=O)N2CCN(C34CC5CC(CC(C5)C3)C4)CC2)cc1OC | -6.74
CCC1CCC(C(=O)NC(C(=O)NCCc2ccc(S(N)(=O)=O)cc2)C(C)C)CC1 (stereo not drawn) | -8.18
Cc1ccc(Cn2cc3c(O)nnc-3c3ccccc32)cc1 | 1.68

SMILES | % Inhibition @ 10 uM [%]
COc1c(C)cc(S(=O)(=O)NC2CC(C)(C)NC(C)(C)C2)c(C)c1C | -2.29
COc1ccc2c(c1)C1(C)CCCc3c(O)c(-c4ccccc4)c(=O)n-2c31 (stereo not drawn) | -1.98
COCCNC(=O)C1CCC(CNS(=O)(=O)c2cccc3nsnc23)CC1 (stereo not drawn) | -4.1
CCOc1ccc(NC(=O)C2=C(C)NC(=O)NC2c2cc(OC)c(OC)c(OC)c2)cc1 (stereo not drawn) | 6.71
CCN(CC)S(=O)(=O)c1ccc2[nH]c3c(c2c1)CCCC3 | 1.71
Cc1ccc(C(=O)Nc2nc(-c3nnn(-c4ccc(C)cc4)c3C)ns2)cc1 | -4.33
O=C(c1ccco1)n1nc(-c2ccco2)nc1NCc1ccccc1Cl | 2.21
COc1cccc2c1cc1c(=O)n(CC(=O)NC(C)CCc3ccccc3)nc(C)n12 (stereo not drawn) | -1.7
Cc1ccc(CNC(=O)Cc2csc(Nc3nc(S)nc4ccccc34)n2)cc1 | 3.04
CC(O)CN1CCN(C(=O)CN2C(=O)NC(c3ccccc3)(c3ccccc3)C2=O)CC1 (stereo not drawn) | -4.65
O=C(Cc1ccc(F)cc1)NCC1(c2ccccc2)CCCC1 | -1.31
CC(=O)c1ccc(NC(=O)C23CCC(C)(C(=O)C2=O)C3(C)C)cc1 (stereo not drawn) | 1.27
CC[C@H](NC(=O)[C@H](C)NC(=O)c1ccc(-c2ccccc2Cl)c(Cl)c1)C(=O)c1nc2ccccc2o1 | -1.5
CC(C)(C)C1CCC(NCCCN2CCCC2=O)CC1 (stereo not drawn) | 1.57
Cn1c(SCc2ccc(Cl)cc2)nc2c1c(=O)[nH]c(=O)n2C | 3.05
CN1CCN(C(=O)c2nc(-c3ccc(Cl)cc3)n3c2CCCCC3)CC1 | 6.14
Cc1cc(C)cc(NS(=O)(=O)c2ccc(NC(=O)c3ccco3)cc2)c1 | -5.21
O=C(NC1CCCC1)c1nnc(-c2ccc3c(c2)OCO3)o1 | -3.49
c1cc[n+](Cc2nc3ccccc3[nH]2)cc1 | -1.84
CC1(O)N(Cc2ccccc2)C(=O)OC12CCCCC2 (stereo not drawn) | 0.317
CC(C)C[C@H](NC(=O)c1ccc2cc(N)ccc2c1)C(=O)NCC#N | -1.82
